Source: patent publication US20220411536A1 (NUMAB THERAPEUTICS, published 2022)

How the values were obtained:
[1] = target: CD3e on Jurkat PD-1 NFAT reporter T cells or on T cells of human PBMCs (human, UniProt P07766); test: cell-based or functional assay
[2] = target: T1, recombinant human IL-23R (custom-made by Trenzyme) (human, UniProt Q5VWK5 24-355); test: SPR, immobilised IL-23R
T1 sequence (looked up): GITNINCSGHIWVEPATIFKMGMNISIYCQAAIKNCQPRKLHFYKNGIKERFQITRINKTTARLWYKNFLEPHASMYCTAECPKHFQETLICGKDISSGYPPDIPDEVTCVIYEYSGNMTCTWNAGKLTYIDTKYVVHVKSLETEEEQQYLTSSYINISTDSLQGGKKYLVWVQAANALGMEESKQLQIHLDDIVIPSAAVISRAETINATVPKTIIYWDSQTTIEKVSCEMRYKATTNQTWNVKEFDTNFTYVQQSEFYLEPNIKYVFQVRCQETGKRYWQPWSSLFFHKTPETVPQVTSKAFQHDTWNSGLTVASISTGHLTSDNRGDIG

[3] = target: T2, Fc-tagged human PD-L1 extracellular domain (SinoBiological, cat. 10084-H02H) (human, UniProt Q9NZQ7 partial chain); test: SPR, captured Fc-PD-L1 ECD
T2 construct: extracellular domain; also called hPD-L1; not shown: Fc tag of the bought protein

[4] = target: T3, recombinant human CD3E ECD (SinoBiological, cat. 10977-H08H) (human, UniProt P07766 23-126); test: SPR, immobilised CD3e ECD, two-state model
T3 construct: extracellular domain; bought protein; also called CD3s

[5] = target: T3, recombinant human CD3E ECD …; test: SPR, immobilised CD3e ECD, two-state model (ka1)
[6] = target: T3, recombinant human CD3E ECD …; test: SPR, immobilised CD3e ECD, two-state model (kd1)

T3 sequence (P07766 23-126): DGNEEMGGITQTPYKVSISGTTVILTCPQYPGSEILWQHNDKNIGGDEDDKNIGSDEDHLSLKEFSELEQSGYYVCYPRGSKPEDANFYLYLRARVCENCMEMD
T2 sequence (Q9NZQ7 19-238): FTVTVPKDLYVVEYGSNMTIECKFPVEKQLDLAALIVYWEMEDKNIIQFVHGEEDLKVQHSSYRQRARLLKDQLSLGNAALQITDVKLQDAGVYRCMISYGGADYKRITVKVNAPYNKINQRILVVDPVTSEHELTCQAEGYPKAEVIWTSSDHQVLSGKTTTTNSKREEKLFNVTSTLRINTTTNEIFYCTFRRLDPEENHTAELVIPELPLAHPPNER

IC50, NFAT reporter, HCC1954 cells [1]: 0.325 nM | rel. max. activation vs PRO1497, NFAT reporter, HCC1954 cells [1]: 86% | Kd [2]: 0.985 nM | koff [2]: 0.000236 s⁻¹ | kon [2]: 240000 M⁻¹ s⁻¹ | binding result [3]: no binding | KD1 [4]: 14.4 nM | Kd [4]: 8.28 nM | kd2 [4]: 0.00129 s⁻¹ | kon [5]: 282000 M⁻¹ s⁻¹ | koff [6]: 0.00406 s⁻¹
B1: PRO1548 (multispecific antibody)
chain 1: [not shown - about 100 residues]RTVAAPSVFIFPPDVVMTQSPSSLSASVGDRVTITCQASQIISSRSAWYQQKPGQPPKLLIYQASKLASGVPSRFSGSGSGTDFTLTISSLQPEDFATYYCQCTYIDSNFGAFGCGTKLTVLGTVAAPSVFIFPPSDEQLKSGTASVVCLLNNFYPREAKVQWKVDNALQSGNSQESVTEQDSKDSTYSLSSTLTLSKADYEKHKVYACEVTHQGLSSPVTKSFNRGECGGGGSGGGGSDIQMTQSPSSLSASVGDRVTITCQSSQSVFSNNYLAWFQQKPGQSPKRLIYSASTLASGVPSRFSGSGSGTDFTLTISSLQPEDFATYYCLGSYACSSADCYVFGTGTKVTVLGGGGGSGGGGSGGGGSGGGGSEVQLVESGGGLVQPGGSLRLSCAASGFSLSSYDMSWVRQAPGKGLAWIGASYASGPTYYASWAKGRFTISRDNSKNTVYLQMNSLRAEDTATYFCARGGWTGTSHSNIWGQGTLVTVSS
chain 2: [not shown - about 120 residues]ASTKGPSVFPLAPEVQLVESGGGLVQPGGSLRLSCAASGFSFSSSYWICWVRQAPGKCLEWVGCVFTGDGTTYYASWAKGRFTISRDNSKNTVYLQMNSLRAEDTATYFCARPVSVYYYGMDLWGQGTLVTVSSASTKGPSVFPLAPSSKSTSGGTAALGCLVKDYFPEPVTVSWNSGALTSGVHTFPAVLQSSGLYSLSSVVTVPSSSLGTQTYICNVNHKPSNTKVDKKVEPKSCGGGGSGGGGSIQMTQSPSSLSASVGDRVTITCQASENIYSFLAWYQQKPGKAPKLLIYSASKLAAGVPSRFSGSGSGTDFTLTISSLQPEDFATYYCQQTNRYSNPDIYNVFGTGTKVTVLGGGGGSGGGGSGGGGSGGGGSEVQLVESGGGLVQPGGSLRLSCAASGIDFNSNYYMCWVRQAPGKGLEWIGCIYVGSHVNTYYANWAKGRFTISRDNSKNTVYLQMNSLRAEDTAVYYCATSGSSVLYFKFWGQGTLVTVSS
